Sequences with one replicate were seen in a single cluster, so their values are uncertain.
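Further: ATP exposure 15 min at 22 °C before imaging.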

In the series the test system is ATP. The experiment in a line: switch fluorescence ratio, 500 uM ATP over buffer (Cy3 cluster intensity, sum of 5 cycles each) (fold (ratio)); higher = stronger signal-on switching upon ATP binding; sequences stand for … in TCGTCGGCAGCGTCAGATGTGTATAAGAGACAGTTTTTTTTTTTTTTTTTTTTTTTTT…TC. Conditions: aptamer strand: ATP DNA aptamer (quencher-CACCTGGGGGAGTATTGCGGAGGAAGG + anchor), 100 nM annealed; ATP concentration: 500 uM; one replicate. In outline:
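Cy3-labelled switching-strand clusters on a modified Illumina MiSeq flow-cell were annealed to 100 nM quencher-labelled ATP aptamer, imaged in selection buffer, then imaged after 15 min with 500 uM ATP at 22 °C. Five buffer/ATP cycles ran, with NaOH stripping and re-annealing between them. The fluorescence ratio is summed target-cycle over summed buffer-cycle Cy3 intensity per cluster, averaged per switch-domain sequence. Clusters outside 100-1000 RFU were excluded.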
As to TCTGGAAGTT, the switch fluorescence ratio is 1.02.
Consider CCGGTGTCGC, for which the switch fluorescence ratio turned out to be 0.965.
For TTTCTGCAAC the value was 1.44; for GGCGCGGACT, 1.03; for ACAGGCATTC, 1.12.
Next, AGCATCAGTG: 1.04; AGGCTATCTA: 0.967.
Next, TAGGGGGCA: 0.991.
As to GGGCTGGCGC, the switch fluorescence ratio stood at 1.04.
For ATTGCACGG the value was 1.04; for AAGCTTCACG, 1.05.
TTATGCAGGC: the switch fluorescence ratio amounted to 1.09.
On to TGGAACTACC, for which the switch fluorescence ratio came out at 1.12.
As for CTAGGAGAGC, the switch fluorescence ratio came to 0.911.
On to ATTTCGGTA, for which the switch fluorescence ratio was 0.973.
As to TCCATTTACA, the switch fluorescence ratio is 1.03.
For AGTTAGCGGG the value was 0.973; for GCTAATGGCA, 0.985.
For GAGGCCCGAG the value was 1.03; for GGGATTTCGG, 1.
For AATGCGTAGC the value was 0.924; for GGAGGCCAAT, 0.976; for AGCAGCATCA, 1.05.
As to CGGATGAACT, the switch fluorescence ratio stood at 0.999.
In the case of GGAGCGAACC, the switch fluorescence ratio is 1.53.
Turning to TCCATCGTAC, the switch fluorescence ratio was 1.74.
For TTTCGATC the value was 0.98; for TGCGATAAGT, 1.02.
AAAGATGCAT: the switch fluorescence ratio was determined as 0.992.
On to TCTGTATAGG, for which the switch fluorescence ratio was 0.966.
Next, TTAACGAGTA: 1.07; GGCGGCATTT: 1.15.
Next, CTCTATCGGT: 1; TTTGAGGGAG: 0.981; TTTTCGACTG: 0.948.
For GCTCTTTAT the value was 1.06; for AAGGCGCCTG, 1.02.
Regarding TACATTTAGA, the switch fluorescence ratio amounted to 1.03.
GAATGATTCC: the switch fluorescence ratio worked out at 1.03.
Take AACTGCTTGG: the switch fluorescence ratio worked out at 1.01.
For the sequence TCGTTAATAA, the switch fluorescence ratio amounted to 1.23.
For ATTTTGACCT the value was 1.3; for ATACTATGAC, 1.1.
Next, TCGAAGCCGA: 1.05.
For CATTCATGTC the value was 0.958; for TCGAGTAACG, 1; for GCTGGGATTT, 1.01.
Regarding GTCGCAGGTT, the switch fluorescence ratio turned out to be 1.01.
For AGAATAAACG the value was 1.03; for CAGCGTCTGT, 1.03; for GACCAGAGGA, 0.98.
Next, GCGAGGGGG: 0.942.
For the sequence GTTTCGAACT, the switch fluorescence ratio was found to be 1.02.
For GCTAACGTAG the value was 1.06.
Regarding CATTGACTAC, the switch fluorescence ratio is 1.09.
On to AAACCAGGCC, for which the switch fluorescence ratio worked out at 1.05.
Next, ACTTCTCACG: 1.14.
For AGAGGGCCGA the value was 1; for CGTCCATGTT, 1; for GAACTGTAAC, 1.11.
For TAGATGAGGT the value was 0.965; for CATATGGCCC, 0.989.
For GTTGCCGGCA, the switch fluorescence ratio was 0.981.
Next, AACCCAAAAA: 0.948; GAGTAGCGTT: 0.974; ACGGAGATTG: 1.03.
As to GGAGGGCCTT, the switch fluorescence ratio amounted to 1.
